{
  "source": "paper PMC4336329",
  "about": "(PLoS ONE, 2015)",
  "note": "Screen size: about 310,000 compounds; about 14,000 (4.5%) showed an effect of 50% or more. Effects have a minus sign here. The list shows a part of the results.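 Note: peak tail current of the secondary pulse compared with the same well before compound.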",
  "data": [
    {"biological_target": "human ether-à-go-go-related gene (hERG) potassium channel (human, UniProt Q12809)", "sequence (Q12809 whole entry, looked up)": "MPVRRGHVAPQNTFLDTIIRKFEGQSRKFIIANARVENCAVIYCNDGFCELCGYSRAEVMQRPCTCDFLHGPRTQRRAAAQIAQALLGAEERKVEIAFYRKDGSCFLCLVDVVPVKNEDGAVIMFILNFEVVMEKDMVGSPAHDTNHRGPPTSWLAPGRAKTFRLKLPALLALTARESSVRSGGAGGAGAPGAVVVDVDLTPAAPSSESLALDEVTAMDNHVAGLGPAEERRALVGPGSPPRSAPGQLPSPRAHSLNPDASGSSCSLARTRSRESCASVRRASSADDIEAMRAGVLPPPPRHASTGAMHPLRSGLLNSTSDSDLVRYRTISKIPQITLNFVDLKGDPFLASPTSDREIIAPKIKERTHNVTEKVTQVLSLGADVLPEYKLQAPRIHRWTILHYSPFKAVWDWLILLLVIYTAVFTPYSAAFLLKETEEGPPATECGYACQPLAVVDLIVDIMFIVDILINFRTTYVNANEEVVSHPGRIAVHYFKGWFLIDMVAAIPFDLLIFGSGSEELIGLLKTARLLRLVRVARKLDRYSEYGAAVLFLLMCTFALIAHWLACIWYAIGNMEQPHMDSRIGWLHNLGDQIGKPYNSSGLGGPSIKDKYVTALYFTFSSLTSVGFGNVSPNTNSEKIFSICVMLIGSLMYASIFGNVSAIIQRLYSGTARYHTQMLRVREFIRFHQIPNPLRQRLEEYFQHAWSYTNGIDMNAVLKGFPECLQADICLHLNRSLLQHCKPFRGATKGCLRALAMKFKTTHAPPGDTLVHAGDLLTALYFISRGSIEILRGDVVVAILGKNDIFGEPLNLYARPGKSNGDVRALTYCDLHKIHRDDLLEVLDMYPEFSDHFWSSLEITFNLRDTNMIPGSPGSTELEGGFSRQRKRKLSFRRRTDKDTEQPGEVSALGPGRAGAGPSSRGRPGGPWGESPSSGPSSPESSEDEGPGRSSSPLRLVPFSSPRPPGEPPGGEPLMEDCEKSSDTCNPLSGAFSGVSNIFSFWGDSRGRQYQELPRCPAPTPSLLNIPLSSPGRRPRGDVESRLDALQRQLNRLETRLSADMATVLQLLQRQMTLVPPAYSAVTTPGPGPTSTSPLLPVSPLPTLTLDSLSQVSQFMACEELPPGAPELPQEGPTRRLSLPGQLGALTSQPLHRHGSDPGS", "experiment": "primary screen, population patch clamp on CHO cells stably expressing hERG", "units": {"hERG current change (%, negative = inhibition) at 10uM": "%"}, "values": [
      {"smiles": "Cc1ccc(CNC(=O)C2CCCN(S(=O)(=O)c3ccc(F)cc3)C2)cc1", "note": "(stereo not shown)", "hERG current change (%, negative = inhibition) at 10uM": -27.2},
      {"smiles": "Cc1c(C(=O)O)oc2c1C(O)CCC2", "note": "(stereo not shown)", "hERG current change (%, negative = inhibition) at 10uM": 0.768},
      {"smiles": "COc1ccc(CCC(=O)N(c2nnc(-c3cccnc3)s2)C(C)C)cc1.Cl", "hERG current change (%, negative = inhibition) at 10uM": -49.6},
      {"smiles": "COc1ccc(CCNC(=O)c2ccc(N(C)S(=O)(=O)c3ccc(C)cc3)cc2)cc1", "hERG current change (%, negative = inhibition) at 10uM": -10.4},
      {"smiles": "O=C(Nc1nccs1)c1ccc2ccccc2c1", "hERG current change (%, negative = inhibition) at 10uM": 20.9},
      {"smiles": "CN1CCN(S(=O)(=O)c2ccc(NC(=O)c3ccc(Br)o3)cc2)CC1", "hERG current change (%, negative = inhibition) at 10uM": -25.6},
      {"smiles": "Cc1ncc([N+](=O)[O-])n1Cc1ccccc1F", "hERG current change (%, negative = inhibition) at 10uM": 2.98},
      {"smiles": "COc1ccc2c(c1)c(CC(=O)Nc1ccc(C(C)=O)cc1)c(C)n2C(=O)c1ccc(Cl)cc1", "hERG current change (%, negative = inhibition) at 10uM": 1.03},
      {"smiles": "Cc1cc(OCC(=O)Nc2ccc3oc(-c4ccncc4)nc3c2)ccc1Cl", "hERG current change (%, negative = inhibition) at 10uM": -6.44},
      {"smiles": "CCOc1ccc(-c2ccc(SC)nn2)cc1", "hERG current change (%, negative = inhibition) at 10uM": 9.3},
      {"smiles": "O=C1C=C(c2ccc(F)c(Cl)c2)C[C@@H](c2ccc(F)cc2)C1", "hERG current change (%, negative = inhibition) at 10uM": 0.783},
      {"smiles": "CCn1c(=N)n(CC(O)c2cccs2)c2ccccc21.Cl", "note": "(stereo not shown)", "hERG current change (%, negative = inhibition) at 10uM": -60.4},
      {"smiles": "COc1ccc(/C=C(\\NC(=O)c2cccs2)C(=O)Nc2ccc(C)cc2)cc1OC", "hERG current change (%, negative = inhibition) at 10uM": 1.34},
      {"smiles": "Cc1c(Cl)cccc1NC(=O)COC(=O)c1c2c(nc3ccccc13)CCN(Cc1ccccc1)C2", "hERG current change (%, negative = inhibition) at 10uM": 2.82},
      {"smiles": "Cc1cccc(NC(=S)NC2CCN(Cc3ccccc3)CC2)c1C", "hERG current change (%, negative = inhibition) at 10uM": -18.7},
      {"smiles": "Cn1c(=O)oc2cc(S(=O)(=O)Nc3ccc(Cl)cc3F)ccc21", "hERG current change (%, negative = inhibition) at 10uM": -2.7},
      {"smiles": "CCCCOc1ccc(C(=O)Nc2ccncc2)cc1", "hERG current change (%, negative = inhibition) at 10uM": 15.3},
      {"smiles": "CCOC(=O)C[C@H]1c2ccccc2S(=O)(=O)N1Cc1cc(OC)c(OC)c(OC)c1", "hERG current change (%, negative = inhibition) at 10uM": -8.45},
      {"smiles": "Cc1nn(Cc2ccc(Cl)cc2)c(C)c1NC(=O)c1c(-c2ccccc2)noc1C", "hERG current change (%, negative = inhibition) at 10uM": -65.1},
      {"smiles": "O=C(COc1ncnc2ccccc12)N1CCN(S(=O)(=O)c2ccc(Cl)cc2)CC1", "hERG current change (%, negative = inhibition) at 10uM": -9.26},
      {"smiles": "O=C(CNC(=O)c1ccc(Cl)cc1Cl)NCCCn1ccnc1", "hERG current change (%, negative = inhibition) at 10uM": 6.31},
      {"smiles": "COc1cccc(-c2nc(CS(=O)CC(=O)NC3CCCCC3)c(C)o2)c1", "note": "(stereo not shown)", "hERG current change (%, negative = inhibition) at 10uM": -0.124},
      {"smiles": "CCN(c1cccc(C)c1)S(=O)(=O)c1cnc[nH]1", "hERG current change (%, negative = inhibition) at 10uM": 9.23},
      {"smiles": "CC(C)(C)c1cc(CP(=O)(c2ccccc2)c2ccccc2)cc(C(C)(C)C)c1O", "hERG current change (%, negative = inhibition) at 10uM": 14.7},
      {"smiles": "Cc1c(Nc2cc(N3CCCC(C)C3)c3nonc3c2[N+](=O)[O-])c(=O)n(-c2ccccc2)n1C", "note": "(stereo not shown)", "hERG current change (%, negative = inhibition) at 10uM": -19.3},
      {"smiles": "CC(C)Cn1cc(C(=O)NCCCOC(C)C)c2c3ccccc3n(C)c2c1=O", "hERG current change (%, negative = inhibition) at 10uM": 8.67},
      {"smiles": "COc1ccccc1CN1CC(C(=O)NCCc2cn[nH]c2)CCC1=O", "note": "(stereo not shown)", "hERG current change (%, negative = inhibition) at 10uM": 4.6},
      {"smiles": "O=C1N=c2ccccc2=C1c1sc(=S)n(-c2ccc(O)cc2)c1O", "hERG current change (%, negative = inhibition) at 10uM": 16.6},
      {"smiles": "CCS(=O)(=O)NCCCCc1ccccc1", "hERG current change (%, negative = inhibition) at 10uM": -35.4},
      {"smiles": "Cc1cc(=O)n2c(c1C#N)SC1CCCCC12O", "note": "(stereo not shown)", "hERG current change (%, negative = inhibition) at 10uM": 7.75},
      {"smiles": "CC(C)[C@H](NC(=O)C1CCN(S(=O)(=O)c2ccccc2)CC1)C(=O)NCc1ccccn1", "hERG current change (%, negative = inhibition) at 10uM": 18.5},
      {"smiles": "CCCCCCn1c(CN2CCCCC2CC)nc2c1c(=O)n(C)c(=O)n2C", "note": "(stereo not shown)", "hERG current change (%, negative = inhibition) at 10uM": -51.9},
      {"smiles": "O=C(N/N=C/c1c(O)n(CCc2ccc(F)cc2)c(=O)[nH]c1=O)c1ccccc1", "hERG current change (%, negative = inhibition) at 10uM": -2.63},
      {"smiles": "CC(C)[C@@H]1CC[C@@H](C)c2c(-c3ccccc3)n[nH]c21", "hERG current change (%, negative = inhibition) at 10uM": 10.9},
      {"smiles": "COc1cc(/C=C2\\C(=N)N3N=C(S(C)(=O)=O)SC3=NC2=O)cc(OC)c1OCCOc1ccc(C)cc1", "hERG current change (%, negative = inhibition) at 10uM": 5.03},
      {"smiles": "C=CCN(c1ccccc1)S(=O)(=O)c1cccc(C(=O)N2CC(C)CC(C)C2)c1", "note": "(stereo not shown)", "hERG current change (%, negative = inhibition) at 10uM": 0.0123},
      {"smiles": "COc1cccc(C(=O)NC(C)C(c2cccs2)N2CCOCC2)c1", "note": "(stereo not shown)", "hERG current change (%, negative = inhibition) at 10uM": -11.2},
      {"smiles": "CC(=O)C1=C(C)NC(=O)NC1c1cc(Br)ccc1OCC(N)=O", "note": "(stereo not shown)", "hERG current change (%, negative = inhibition) at 10uM": 3.24},
      {"smiles": "CC1=C(C(=O)OC(C)C)C(c2c(O)ccc3ccccc23)NC(=O)N1", "note": "(stereo not shown)", "hERG current change (%, negative = inhibition) at 10uM": 8.55},
      {"smiles": "CN(c1ccccc1)S(=O)(=O)c1cccc2ccccc12", "hERG current change (%, negative = inhibition) at 10uM": -15.6},
      {"smiles": "CCCCNC(=O)CSc1nc2ccc(N3CCOCC3)cc2c(=O)n1CCc1ccccc1", "hERG current change (%, negative = inhibition) at 10uM": -19.3},
      {"smiles": "CCOC(=O)C1CCN(C(=O)COC(=O)CN(C)S(=O)(=O)c2ccc(NC(C)=O)cc2)CC1", "hERG current change (%, negative = inhibition) at 10uM": 11.7},
      {"smiles": "COc1ccc(NC(=O)COC(=O)c2ncc(Cl)c(Cl)c2Cl)c(OC)c1", "hERG current change (%, negative = inhibition) at 10uM": 11},
      {"smiles": "CCc1ccc(-c2cc(C)no2)cc1S(=O)(=O)Nc1ccc(Cl)cn1", "hERG current change (%, negative = inhibition) at 10uM": 12.2},
      {"smiles": "CCOC(=O)c1c(NC(=O)COC(=O)c2ccccc2NC)sc(C(=O)N(C)C)c1C", "hERG current change (%, negative = inhibition) at 10uM": 16.2},
      {"smiles": "CCc1c(C)nc2cc(-c3ccc(Cl)cc3)[nH]n2c1=O", "hERG current change (%, negative = inhibition) at 10uM": -2.29},
      {"smiles": "Cc1ccc2cc(NC(=O)Cc3ccccc3)ccc2n1", "hERG current change (%, negative = inhibition) at 10uM": 8.3},
      {"smiles": "Cc1ccc(C(C)NC(=S)NCc2ccc(F)cc2)c(C)c1", "note": "(stereo not shown)", "hERG current change (%, negative = inhibition) at 10uM": 13.6},
      {"smiles": "O=C(CC(=O)Nc1cccc(Cl)c1Cl)Nc1cccc(Cl)c1Cl", "hERG current change (%, negative = inhibition) at 10uM": 19},
      {"smiles": "CCCc1nnc(SCC(=O)N2CCOCC2)n1CCCOC", "hERG current change (%, negative = inhibition) at 10uM": 5.79},
      {"smiles": "O=C(NCc1ccco1)c1ccc2c(c1)C(=O)c1ccccc1-2", "hERG current change (%, negative = inhibition) at 10uM": -8.64},
      {"smiles": "COc1ccc(NC(=O)c2c(C)noc2-c2snnc2C)cc1", "hERG current change (%, negative = inhibition) at 10uM": -1.51},
      {"smiles": "CC(C)N(C(=O)CSc1nnc(NC(=O)c2ccco2)s1)C(C)C", "hERG current change (%, negative = inhibition) at 10uM": 18.3},
      {"smiles": "Cn1c2c(c(=O)n(C)c1=O)C(c1cc3c(cc1Br)OCO3)CC(=O)N2", "note": "(stereo not shown)", "hERG current change (%, negative = inhibition) at 10uM": 3.46},
      {"smiles": "Cc1ccc(OCC(=O)Nc2ccc(N3CCN(C(=O)c4ccc(C)cc4)CC3)cc2)cc1", "hERG current change (%, negative = inhibition) at 10uM": 9.99}
    ]}
  ]
}
